Some of the results follow.
Test system: HepG2
Experiment: cytotoxicity call (relative viability < 0.9)
Conditions: 10 µM

| SMILES | cytotoxicity call |
| --- | --- |
| N#Cc1cccc2ccsc12 | inactive |
| C[C@@H]1CCCCO[C@@H](CN(C)S(=O)(=O)c2ccccc2)[C@@H](C)CN([C@H](C)CO)C(=O)c2cc(NC(=O)Nc3cccc4ccccc34)ccc2O1 | inactive |
| COc1ccc(S(=O)(=O)N(C)C[C@@H]2Oc3ccc(N(C)C)cc3CC(=O)N([C@H](C)CO)C[C@@H]2C)cc1 | inactive |
| C[C@H]1CN([C@@H](C)CO)C(=O)Cc2cc(NS(=O)(=O)c3ccccc3)ccc2O[C@H]1CN(C)Cc1ccc(Oc2ccccc2)cc1 | inactive |
| C[C@H]1CN([C@@H](C)CO)C(=O)c2cccc(NC(=O)c3cnccn3)c2O[C@@H]1CN(C)C(=O)Nc1ccccc1 | inactive |
| N#C/C(=C\c1ccc(C(F)(F)F)cc1)c1c[nH]c2ccccc12 | inactive |
| Cc1ccc(S(=O)(=O)Nc2ccc3c(c2)C(=O)N([C@H](C)CO)C[C@H](C)[C@@H](CN(C)S(C)(=O)=O)O3)cc1 | inactive |
| Cc1ccccc1S(=O)(=O)N1C[C@@H](O)COC[C@@H]2O[C@H](CC(=O)N3CCC(Cc4ccccc4)CC3)CC[C@H]21 | inactive |
| C[C@H]1CN([C@@H](C)CO)C(=O)Cc2cc(NC(=O)CCCCCC(=O)Nc3ccccc3N)ccc2O[C@H]1CN(C)Cc1ccc(Cl)c(Cl)c1 | inactive |
| CC1=NCCN1C(=O)[C@@H](N)CC(C)C | inactive |
| C[C@@H]1CN([C@H](C)CO)C(=O)c2cc(NS(=O)(=O)c3cn(C)cn3)ccc2O[C@@H](C)CCCCO[C@@H]1CN(C)Cc1ccc(C(F)(F)F)cc1 | inactive |
| C[C@@H]1CCCCO[C@@H](CN(C)C(=O)CCC(F)(F)F)[C@@H](C)CN([C@@H](C)CO)C(=O)c2cc(NC(=O)NC3CCCCC3)ccc2O1 | inactive |

From the antibiotic and cytotoxicity screens of Wong et al. (2023)
